Binding data for 3 substances are collected here from PMC4361392.

Protein sequences, listed by entry. Tags and fused reporters are not part of them. Lines headed by an entry give the natural chain unless they say otherwise; changes in a name come on top. Chains listed by the source or under a name are the forms on record and can include a tag or linker.
UniProt O43791: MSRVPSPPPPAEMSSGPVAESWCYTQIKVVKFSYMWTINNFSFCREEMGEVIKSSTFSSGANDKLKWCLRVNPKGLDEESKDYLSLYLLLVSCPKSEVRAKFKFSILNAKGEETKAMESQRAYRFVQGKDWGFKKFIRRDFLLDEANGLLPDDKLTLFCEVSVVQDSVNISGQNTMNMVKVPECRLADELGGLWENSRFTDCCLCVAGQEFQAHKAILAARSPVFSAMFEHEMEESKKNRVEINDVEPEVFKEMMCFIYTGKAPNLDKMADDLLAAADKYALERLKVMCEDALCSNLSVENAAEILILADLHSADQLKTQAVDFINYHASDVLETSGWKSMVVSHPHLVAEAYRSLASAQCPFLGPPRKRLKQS
UniProt P10275: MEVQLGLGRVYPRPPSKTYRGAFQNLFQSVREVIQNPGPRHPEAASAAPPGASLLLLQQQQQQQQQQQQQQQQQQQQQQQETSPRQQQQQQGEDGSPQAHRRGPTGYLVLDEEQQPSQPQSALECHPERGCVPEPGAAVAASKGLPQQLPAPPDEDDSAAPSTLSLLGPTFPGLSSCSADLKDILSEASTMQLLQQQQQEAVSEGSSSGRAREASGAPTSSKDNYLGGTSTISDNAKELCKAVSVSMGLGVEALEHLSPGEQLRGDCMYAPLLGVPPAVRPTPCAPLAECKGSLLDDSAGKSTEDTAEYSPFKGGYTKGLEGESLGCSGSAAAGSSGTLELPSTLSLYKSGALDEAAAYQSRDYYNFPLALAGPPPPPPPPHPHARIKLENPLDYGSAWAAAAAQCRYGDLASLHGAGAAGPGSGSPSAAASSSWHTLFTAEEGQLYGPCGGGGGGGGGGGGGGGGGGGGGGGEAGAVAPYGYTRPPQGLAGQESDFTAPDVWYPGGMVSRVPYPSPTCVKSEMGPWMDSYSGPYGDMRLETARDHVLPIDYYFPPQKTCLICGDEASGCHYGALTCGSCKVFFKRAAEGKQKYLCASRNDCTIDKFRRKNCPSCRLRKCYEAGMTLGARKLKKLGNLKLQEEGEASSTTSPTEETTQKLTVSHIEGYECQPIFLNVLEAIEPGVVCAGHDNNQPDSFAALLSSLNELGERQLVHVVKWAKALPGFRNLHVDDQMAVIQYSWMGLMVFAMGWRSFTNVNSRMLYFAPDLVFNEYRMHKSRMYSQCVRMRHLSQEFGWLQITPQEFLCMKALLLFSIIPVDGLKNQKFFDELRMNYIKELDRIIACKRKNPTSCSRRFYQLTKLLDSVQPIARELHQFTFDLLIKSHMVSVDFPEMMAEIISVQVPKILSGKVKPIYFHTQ
AR splicing variant V7, ectopically expressed (P10275-3, form named): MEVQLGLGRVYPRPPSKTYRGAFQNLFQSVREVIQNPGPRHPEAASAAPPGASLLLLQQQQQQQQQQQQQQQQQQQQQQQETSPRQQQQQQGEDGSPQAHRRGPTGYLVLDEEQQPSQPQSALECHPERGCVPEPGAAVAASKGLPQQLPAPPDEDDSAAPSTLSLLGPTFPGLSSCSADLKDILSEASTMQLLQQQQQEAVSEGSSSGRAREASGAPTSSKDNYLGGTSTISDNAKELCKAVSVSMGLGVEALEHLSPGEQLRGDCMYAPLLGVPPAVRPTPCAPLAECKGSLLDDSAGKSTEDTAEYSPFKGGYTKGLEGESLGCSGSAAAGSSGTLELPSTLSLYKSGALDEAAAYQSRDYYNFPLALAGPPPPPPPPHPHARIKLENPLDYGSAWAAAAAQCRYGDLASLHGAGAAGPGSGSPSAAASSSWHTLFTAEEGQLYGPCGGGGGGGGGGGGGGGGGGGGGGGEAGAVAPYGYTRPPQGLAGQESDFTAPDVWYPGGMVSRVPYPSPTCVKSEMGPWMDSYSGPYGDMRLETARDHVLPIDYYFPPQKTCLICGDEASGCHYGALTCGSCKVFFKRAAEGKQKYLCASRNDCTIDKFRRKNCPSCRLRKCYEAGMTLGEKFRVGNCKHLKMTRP

The target of test [1] is Myc-SPOP wild type (human) (UniProt O43791). Put plainly: co-IP; 293T cells transfected with the indicated plasmids 16 hr, 20 µM MG132 for 8 hr; coIP and WB, antibody of the IP not stated (Figures 4B and 5B).
Test [2] has as its target wild-type androgen receptor (AR-WT), ectopically expressed (human) (UniProt P10275). Put plainly: co-IP; reciprocal: 293T cells transfected 16 hr, 20 µM MG132 for 8 hr; coIP with anti-AR, WB (Figure 2B).
For test [3], the target named is Myc-SPOP wild type (human) (UniProt O43791). The experiment in a line: co-IP; 293T cells transfected with Myc-SPOP and AR WT or deletion mutants 16 hr, 20 µM MG132 for 8 hr; coIP with Myc antibody, WB (Figure 3B).
Another test deals with Myc-SPOP Y87N (human) (UniProt O43791). Put plainly: co-IP; 293T cells transfected with the indicated plasmids 16 hr, 20 µM MG132 for 8 hr; coIP and WB, antibody of the IP not stated (Figures 4B and 5B).
A further test concerns the target Myc-SPOP W131G (human) (UniProt O43791). Described as above.
Another test concerns the target Myc-SPOP F133V (human) (UniProt O43791). The test is described as above.
The target in the next test is Myc-SPOP F102C (human) (UniProt O43791). Described as above.
A further test has as its target Myc-SPOP Y87C (human) (UniProt O43791). The test is described as above.
A further test deals with Myc-SPOP F133L (human) (UniProt O43791). The test is described as above.
In a further test the target is Myc-SPOP S119N (human) (UniProt O43791). Described as above.
A further test deals with Myc-SPOP F125V (human) (UniProt O43791). The test is described as above.
In the next test the target is HA-SPOP (human) (UniProt O43791). The experiment in a line: co-IP; 293T cells transfected 16 hr, 20 µM MG132 for 8 hr; coIP with anti-HA, WB (Figure 2A).

These are yes or no findings as the source states them, for the method shown. Binding seen in cells or lysates may run through a third protein. Some entries that bind do so weakly or less than the wild type.

Regarding “AR splicing variant V7, ectopically expressed (from UniProt P10275-3 1-644)”, the binding result in [1] is listed as “no binding”.
Regarding HA-SPOP (from UniProt O43791 1-374), the binding entry in test [2] is reported as “binds”.
“wild-type androgen receptor (AR-WT), ectopically expressed (from UniProt P10275 1-920)”: the binding entry in test [3] was “binds”; with Myc-SPOP Y87N (human), “no binding”; with Myc-SPOP W131G (human), “no binding”; in test [1] it was “binds”; in the test with Myc-SPOP F133V (human), “no binding”; with Myc-SPOP F102C (human) it was “no binding”. Moreover, the binding entry with Myc-SPOP Y87C (human) is recorded as “no binding”; with Myc-SPOP F133L (human), “no binding”; with Myc-SPOP S119N (human), “no binding”; with Myc-SPOP F125V (human), “no binding”; with HA-SPOP (human) it was “binds”.
